The whole screen tested about 310,000 compounds, of which about 14,000 (4.5%) showed an effect of 50% or more. Effects have a minus sign here. Some of the results follow.
The molecules below were run against human ether-à-go-go-related gene (hERG) potassium channel (human, UniProt Q12809) (assay: primary screen, population patch clamp on CHO cells stably expressing hERG).
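Further: peak tail current of the secondary pulse compared with the same well before compound.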

Sequence of human ether-à-go-go-related gene (hERG) potassium channel (Q12809 whole entry, looked up): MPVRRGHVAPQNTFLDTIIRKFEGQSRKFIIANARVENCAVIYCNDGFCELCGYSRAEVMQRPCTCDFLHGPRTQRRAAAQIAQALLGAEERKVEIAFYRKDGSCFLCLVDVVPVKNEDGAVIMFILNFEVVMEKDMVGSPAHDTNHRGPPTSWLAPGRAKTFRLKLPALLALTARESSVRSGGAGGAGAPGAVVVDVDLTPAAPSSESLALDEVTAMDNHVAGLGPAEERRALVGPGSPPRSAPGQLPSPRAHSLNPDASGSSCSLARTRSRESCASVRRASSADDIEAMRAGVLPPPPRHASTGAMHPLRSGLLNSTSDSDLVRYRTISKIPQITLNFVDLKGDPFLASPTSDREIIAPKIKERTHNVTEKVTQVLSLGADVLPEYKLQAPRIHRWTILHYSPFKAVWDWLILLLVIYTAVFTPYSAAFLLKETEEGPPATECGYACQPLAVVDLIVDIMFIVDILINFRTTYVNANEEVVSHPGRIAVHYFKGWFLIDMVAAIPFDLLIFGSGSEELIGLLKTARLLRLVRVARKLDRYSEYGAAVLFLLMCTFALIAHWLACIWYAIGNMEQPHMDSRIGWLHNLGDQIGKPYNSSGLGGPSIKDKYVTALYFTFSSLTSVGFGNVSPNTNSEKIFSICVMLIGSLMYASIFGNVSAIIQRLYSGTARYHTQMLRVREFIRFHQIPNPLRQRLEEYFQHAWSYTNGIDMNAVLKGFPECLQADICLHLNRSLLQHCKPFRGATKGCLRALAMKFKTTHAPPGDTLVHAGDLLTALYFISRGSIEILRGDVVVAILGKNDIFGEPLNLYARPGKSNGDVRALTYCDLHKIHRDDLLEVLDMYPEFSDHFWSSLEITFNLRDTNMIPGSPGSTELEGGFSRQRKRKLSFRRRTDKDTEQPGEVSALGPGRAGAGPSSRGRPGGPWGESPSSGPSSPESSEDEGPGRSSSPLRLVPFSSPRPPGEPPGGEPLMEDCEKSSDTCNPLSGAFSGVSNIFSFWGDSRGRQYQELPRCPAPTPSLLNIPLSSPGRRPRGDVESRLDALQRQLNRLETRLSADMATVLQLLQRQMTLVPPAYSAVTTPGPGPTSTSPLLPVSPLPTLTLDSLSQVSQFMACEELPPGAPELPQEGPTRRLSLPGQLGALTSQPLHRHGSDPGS

| SMILES | hERG current change (%, negative = inhibition) at 10uM [%] |
| --- | --- |
| COc1ccc2c(C)cc(SCC(=O)NCCN3C(=O)CSC3=O)nc2c1 | 6.31 |
| Cc1ccc(/C=C2/Sc3ccccc3N(CC(=O)NCC3CCCO3)C2=O)cc1 (stereo not shown) | 10.3 |
| Cc1onc(-c2c(Cl)cccc2Cl)c1C(=O)NCCc1ccncc1 | -21.1 |
| C=CCn1c(SCc2cc(=O)n3ccsc3n2)nc2ccccc2c1=O | 1.93 |
| COCCCNC(=O)CN(c1cc([N+](=O)[O-])ccc1OC)S(C)(=O)=O | 12 |
| CC(C)CCN1CN(S(=O)(=O)c2cccs2)c2nc3ccccc3nc21 | 16.2 |
| O=C(/C=C/c1ccc(O)c(O)c1)OCCc1ccccc1 | -14 |
| CCOC(OCC)c1cn(Cc2ccc(C(=O)c3ccccc3)cc2)nn1 | -24.9 |
| Cc1nc2nc(C)c(CCC(=O)N3CCN(c4ccccc4)CC3)c(C)n2n1 | -56.2 |
| COc1cccc(-n2c(O)c(C=NCc3ccccn3)c3ccccc3c2=O)c1 | -26.2 |
| COc1ccc(S(=O)(=O)n2nc(C)c(S(=O)(=O)N3CCOCC3)c2C)cc1OC | 12.8 |
| CCCCN(C(=O)COC(=O)CSc1ccc([N+](=O)[O-])cc1)c1c(N)n(CCC)c(=O)[nH]c1=O | 15.3 |
| Cc1ccccc1C(=O)Nc1ccc(N2CCCC2)cc1.Cl | 4.61 |
| CCCCNC(=S)Nc1ccc(SC(F)F)cc1 | -8.47 |
| COc1cccc(-c2nc(CS(=O)CC(=O)NC3CC3)c(C)o2)c1 (stereo not shown) | -2.33 |
| Cc1cc(C)cc(N(CC(=O)N2CCCCCC2)S(C)(=O)=O)c1 | 6.91 |
| Cc1ccc(C(=O)NCCONC(=O)c2ccc(C)cc2)cc1 | 8.13 |
| COc1ccc(/C=N/NC(=O)CCN2CCN(c3ccccc3)CC2)c(OC)c1OC | -3.73 |
| COc1ccc(CCNC(=O)CC2Nc3ccccc3NC2=O)cc1OC (stereo not shown) | 1.39 |
| CCOC(=O)c1[nH]c(C)c(C(=O)NC2CCN(C(=O)OCC)CC2)c1C | 0.66 |
| CC(NC(=O)c1c(O)c2ccccc2[nH]c1=O)c1ccccc1 (stereo not shown) | 23.9 |
| COc1ccc(OC)c(-c2c(=O)n(OCc3ccccc3Br)c3ccccc3[n+]2[O-])c1 | 11.5 |

| SMILES | hERG current change (%, negative = inhibition) at 10uM [%] |
| --- | --- |
| CCc1nc(CN(C)C(=O)C2CCC(=O)N(CCc3cccc(F)c3)C2)no1 (stereo not shown) | -20.4 |
| COc1ccc(C(=O)N/N=C/c2ccc(OC(=O)c3ccccc3)cc2)cc1 | 6.29 |
| O=C(c1cc(-c2ccccc2Cl)on1)N1CCCC1 | 2.97 |
| COc1cccc(C2CC(c3ccccc3)=NN2S(=O)(=O)c2ccccc2)c1OC (stereo not shown) | 4.09 |
| CCOC(=O)C(NC(=O)NCc1ccc(F)cc1)(OCC)C(F)(F)F (stereo not shown) | 2.3 |
| O=C(c1ccc2c(c1)OCO2)N1CCC2(CC1)OCCO2 | -10.6 |
| CCN(CC(=O)Nc1ccc2c(c1)OCCO2)C(=O)C1CC(=O)N(c2ccc(OC)cc2OC)C1 (stereo not shown) | -3.69 |
| O=C(c1ccc(-c2ccccc2)cc1)C1CCCN(C(=O)Cn2cncn2)C1 (stereo not shown) | -2.68 |
| O=C(CN1C(=O)NC2(CCOc3ccccc32)C1=O)Nc1ccc2c(c1)OCCO2 (stereo not shown) | 4.47 |
| CCNC(=S)N1CCN(c2nc(-c3cccc(OC)c3)cs2)CC1 | -1.85 |
| CS(=O)(=O)N1CCN(C(=O)c2ccc(-c3ccccc3)cc2)CC1 | -1.92 |
| Cc1ccc2c(c1)-c1nc3ccccc3cc1C2=NC1CCCCC1 | 21.8 |
| O=C(N/N=C/c1cccnc1)c1ccc([N+](=O)[O-])cc1 | -7.74 |
| CCc1ccc(CN2CCC(n3nccc3NC(=O)c3ccc4c(c3)OCO4)CC2)cc1 | -72 |
| CCOc1cc(C(=O)NC)cc(Br)c1OC | -2.54 |
| O=C(CCN1C(=O)/C(=C/c2ccc3c(c2)OCO3)SC1=S)NNC(=O)c1cccnc1 | 21.4 |
| C=CCCCCCCCCC(=O)Nc1c[nH]c(=O)[nH]c1=O | -0.489 |
| Cc1ccc(C(=O)CCC(=O)OCc2nnc(-c3ccccc3)o2)cc1 | -37.8 |
| C=CCc1ccc(OCCCNCc2ccccc2)c(OC)c1.O=C(O)C(=O)O | -57.4 |
| COc1cccc(OC)c1C(=O)Nc1ccccc1N1CCCCC1 | -17.4 |
| Oc1ccc(Cl)cc1CNCc1ccc(Cl)cc1 | -3.68 |
| CCCCn1c(N)c(N(CCOC)C(=O)c2cccc(OCc3ccccc3)c2)c(=O)[nH]c1=O | 7.53 |

| SMILES | hERG current change (%, negative = inhibition) at 10uM [%] |
| --- | --- |
| Cc1ccc(NC(=O)c2cc(=O)c3ccccc3o2)c(C)c1 | -4.43 |
| Cl.Clc1ccc(CNCC2CCCO2)c(Cl)c1 (stereo not shown) | -2.74 |
| COc1ccc(N(CC(=O)NCCSc2ccccc2)S(=O)(=O)c2ccccc2)cc1 | -18.4 |
| Cc1ccc(S(=O)(=O)N(CC(=O)N/N=C/c2ccccc2C(=O)O)c2cc(Cl)cc(Cl)c2)cc1 | 8.58 |
| Cc1ccc(C(=O)Nc2ccn(C)n2)cc1 | 11.2 |
| Cc1cccnc1NC(=O)c1cccc(S(=O)(=O)N2CCN(c3ccccc3)CC2)c1 | -27 |
| C=CCNC(=S)N1CCN(C2CCCCC2)CC1 | -30.2 |
| CC(NC(=O)C(=O)N1CCCCC1)C(c1cccs1)N1CCN(c2ccccc2)CC1 (stereo not shown) | -8.83 |
| C#CCNC(=O)C1=C[C@@H](c2ccc(C#C)cc2)C[C@@H](OCc2ccc(CO)cc2)O1 | -2.03 |
| c1ccc(CSc2nnc(-c3cccs3)n2Cc2ccco2)cc1 | -46.8 |
| CCC(=O)Nc1c(C)nn(-c2ccc(C)c(C)c2)c1C | -4.15 |
| CSc1nc(-c2ccco2)nn1C(=O)c1ccc(C)cc1 | 11.8 |
| CCC(=O)Nc1ccc(C(=O)N2CCN(C(=O)c3ccco3)CC2)cc1 | -6 |
| O=C(CCC1CCCN(C(=O)C2CCCC2)C1)NCc1ccc(F)c(F)c1 (stereo not shown) | -30 |
| NC(=O)c1ccsc1NC(=O)COC(=O)COc1ccccc1F | -1.61 |
| CCOC(=O)C1CCN(C(=O)Cc2cccs2)CC1 | -4.67 |
| CCOP(=O)(C#CC(C)(C)C)C(O)(c1ccccc1)C(F)(F)F (stereo not shown) | -9.82 |
| CCC(=O)Nc1nc2ccc3nc(C)sc3c2s1 | -7.15 |
| CCOc1ccc(C(=O)N(CN2CCCC2=O)c2ccc(C)cc2)cc1 | -8.79 |
| Cc1[nH][nH]c(=O)c1C(c1ccc(-c2ccc(F)cc2)o1)c1c(C)[nH][nH]c1=O | 17.9 |
| Cc1ccccc1/C=N/N1C(=O)CSC1=S | 14.7 |
| Cc1noc(C)c1CSc1ccc(Br)cc1 | 4.6 |

| SMILES | hERG current change (%, negative = inhibition) at 10uM [%] |
| --- | --- |
| Cc1ccc(-c2cc3c(n2-c2ccc(C(=O)O)cc2)CCCC3=O)cc1 | 7.44 |
| Cc1ccc(OCCOCCOc2ccc(Br)cc2/C=N\NC(=O)c2ccncc2)cc1 | -8.61 |
| Cc1ccc(Cl)cc1N1CCN(C(=O)C2(S(=O)(=O)c3ccc(Cl)cc3)CC2)CC1 | -6.38 |
| Cc1ccc(/C=N/NS(=O)(=O)c2ccccc2)o1 | 7.34 |
| CCCn1c(N)c(N(CCOC)C(=O)c2ccc([N+](=O)[O-])c(C)c2)c(=O)[nH]c1=O | 35.8 |
| Cc1[nH]n2c(=O)c3c(nc2c1-c1ccccc1)CCC3 | 0.138 |
| COC(=O)c1cn(C(=O)c2ccc(OC)cc2)c2ccccc12 | 12.7 |
| Cn1cnnc1SCC(=O)Nc1ccc(S(=O)(=O)N2CCCC2)cc1 | 0.142 |
| CCOc1ccc(CN2CCN(S(=O)(=O)c3ccc(NC(C)=O)cc3)CC2)cc1OC.O=C(O)C(=O)O | -35.4 |
| CCOc1ccc(C2c3[nH]c4ccccc4c3C[C@H]3C(=O)N(C4CCN(Cc5ccccc5)CC4)CC(=O)N23)cc1OC (stereo partly shown) | -5.25 |
| Cc1c(CC(=O)N[C@H](C(=O)O)C(C)C)c(=O)oc2cc3c(cc12)CCC(C)(C)O3 | 23.1 |
| NC(=O)/C(=C\c1ccncc1)c1cccc2ccccc12 | 13 |
| Cc1ccc(S(=O)(=O)NNC(=S)Nc2cccc(F)c2)cc1 | 19.7 |
| O=C(N/N=C\C1CC=CCC1)c1ccc(Br)o1 (stereo not shown) | 15.6 |
| COc1cc(S(=O)(=O)NC2CCCCC2)ccc1Cl | -25.8 |
| CCOC(=O)c1c(C)n(C)c2cc(OCCN(CC)CC)ccc12 | -9.96 |
| COc1ccccc1N1CCN(CCN(C(=O)c2ccc(F)cc2)c2ccccn2)CC1.Cl | -78.8 |
| CCN1C(=O)C(F)(CC)C(=O)c2ccccc21 (stereo not shown) | -0.848 |
| O=C(NCCCO)C12CC3CC(CC(C3)C1)C2 | 11.7 |
| Cc1ccc(C(=O)NCC(=O)Nc2ncccc2C)s1 | 1.91 |
| COc1cc(OC)nc(NC(=O)NS(=O)(=O)c2ccc(OC(F)(F)F)cc2)n1 | 17.2 |
| COc1ccc(CCNS(=O)(=O)c2ccc(-c3ccc(=O)[nH]n3)o2)cc1OC | 10.7 |

Source: PMC4336329 (PLoS ONE, 2015)
